# About 25,000 (6.9%) of roughly 360,000 compounds were called active. This list was built around the results that the source calls inconclusive (neither active nor inactive); the mix of calls is not that of the screen. The call rests on the fitted dose curve; in most records, active means well fitted inhibition curve with a large enough effect; inconclusive means small, poorly fitted or top-dose-only effect; inactive means flat fitted curve, though single readings scatter. A potency beside an inconclusive call is a rough fit, not a confirmed value.
# Target: Luciferin 4-monooxygenase (Photinus pyralis) (UniProt P08659)
# Assay: qHTS profiling assay for firefly luciferase inhibitor/activator using purifed enzyme and Km concentrations of substrates (counterscreen for miR-21 project); further: nearly all actives have a fitted effect of over 55% in size;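 on activity change, negative = inhibition: plate controls were vehicle for no effect and reference inhibitor for full effect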
# Settings: purified FLuc, luminescence inhibition; activity change, negative = inhibition: at 57.5 µM (top of the series)
# Procedure, shortened: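 Purified P. pyralis luciferase (10nM final) with 10uM D-luciferin and 10uM ATP (Km levels) in 50mM Tris acetate pH 7.5, 10mM Mg acetate, 0.01% Tween-20, 0.05% BSA; qHTS 6-point titration, ~60 µM downward; luminescence read.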
# Potency means the concentration at half of the fitted maximal effect; tags describe the fitted curve by direction and shape.
# UniProt P08659, sequence (P08659 whole entry, looked up): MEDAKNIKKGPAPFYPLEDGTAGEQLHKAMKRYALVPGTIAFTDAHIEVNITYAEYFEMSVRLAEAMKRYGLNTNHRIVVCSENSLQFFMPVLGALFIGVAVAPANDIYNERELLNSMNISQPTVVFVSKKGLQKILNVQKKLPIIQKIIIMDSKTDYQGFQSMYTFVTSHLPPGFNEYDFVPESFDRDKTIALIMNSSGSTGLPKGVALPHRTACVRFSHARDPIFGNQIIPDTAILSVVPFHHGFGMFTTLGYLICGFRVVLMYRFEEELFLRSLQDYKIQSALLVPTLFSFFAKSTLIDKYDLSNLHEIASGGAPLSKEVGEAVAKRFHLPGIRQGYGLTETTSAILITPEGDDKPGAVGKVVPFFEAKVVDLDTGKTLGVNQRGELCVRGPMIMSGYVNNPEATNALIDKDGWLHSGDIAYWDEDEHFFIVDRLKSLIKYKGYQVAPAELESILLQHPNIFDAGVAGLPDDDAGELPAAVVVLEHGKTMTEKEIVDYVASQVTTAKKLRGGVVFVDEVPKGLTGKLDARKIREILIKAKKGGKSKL
Structure (SMILES),Potency,"activity change, negative = inhibition"
CN1C2=CC=CC=CC2=[N+](C)C12C=CC(=[N+]([O-])[O-])C=C2[N+](=O)[O-] (centres undefined),"inconclusive: 26.9 µM [inhibitor, partial curve, poor fit]",
CC1(C)CC(c2nc(-c3ccccc3)cs2)CCS1 (centres undefined),"inconclusive: 23.9 µM [inhibitor, single point]",
Cn1cc([N+](=O)[O-])c(C(=O)Nc2ccc(-c3nc4ccccc4[nH]3)cc2)n1,active: 2.69 µM,
CC(C)c1ccc(CNNC(=O)c2ccccc2)cc1,"inconclusive: 19 µM [inhibitor, partial curve]",
CCOC(=O)c1cnn(-c2nc(-c3ccccc3)cs2)c1C(F)(F)F,"inconclusive: 37.9 µM [inhibitor, partial curve, poor fit]",
COc1ccc(-c2c(NC(=O)c3ccco3)n(-c3ccc(C)cc3)nc(C)c2=O)cc1,,inactive: -0.847%
CCCNC(=S)N1CCC(n2cnc3ccccc32)CC1,"inconclusive: 0.006 µM [inhibitor, partial curve, poor fit]",
Clc1ccc(N=c2ssnc2Cl)cc1,"inconclusive: 33.8 µM [inhibitor, single point]",
O=C(Cn1nnc2ccccc2c1=O)N[C@@H](Cc1ccccc1)C(=O)O,,inactive: -1.55%
C=CCn1c(-c2sc3nc(C)cc(C)c3c2N)n[nH]c1=S,"inconclusive: 37.9 µM [inhibitor, partial curve, poor fit]",
Cc1cc(C)c2[nH]c(C(=O)Nc3ccc4c(c3)OCO4)cc2c1,active: 12 µM,
CCOC(=O)c1c(C)[nH]c(C(=O)COC(=O)[C@H](C)NC(=O)c2ccccc2Cl)c1C,active: 21.3 µM,
O=C(Nc1ccc(N2CCCCCC2)cc1)c1cccc(S(=O)(=O)N2CCOCC2)c1,"inconclusive: 26.9 µM [inhibitor, single point]",
CCOc1ccc(C2=C(C(=O)CC)Sc3nncn3N2C(=O)CC)cc1,"inconclusive: 30.1 µM [inhibitor, partial curve, poor fit]",
Cc1ccc(-c2nnn(CCC(=O)N3CCCCC3C)n2)cc1 (centres undefined),"inconclusive: 37.9 µM [inhibitor, partial curve, poor fit]",
N#C/C(=C/c1ccc(-c2ccccc2[N+](=O)[O-])o1)C(N)=O,,inactive: 4.26%
CSc1nc(/C=C2\C=Nc3ccccc32)c(O)n1C,active: 13.5 µM,
O=C(CSc1ncc(-c2ccccc2)[nH]1)Nc1ccc(F)cc1F,"inconclusive: 37.9 µM [inhibitor, partial curve, poor fit]",
CN(Cc1ccsc1)C(=O)Cn1cc(Br)ccc1=O,"inconclusive: 19 µM [inhibitor, single point]",
COc1ccc(CNC(=O)CN=C2NC(=O)C(c3ccccc3)(c3ccccc3)N2)cc1,"inconclusive: 26.9 µM [inhibitor, single point]",
CCOC(=O)C(=O)CC(=O)c1ccc2c(c1)OCCO2,"inconclusive: 23.9 µM [inhibitor, partial curve, poor fit]",
C=CCn1c(Cc2cccs2)nnc1SCC(=O)c1ccc(F)cc1,"inconclusive: 37.9 µM [inhibitor, partial curve, poor fit]",

Structure (SMILES),Potency,"activity change, negative = inhibition"
CC(=O)Nc1ccc(S(=O)(=O)Nc2nc3n(n2)C(c2ccccc2)C=C(c2ccc(Cl)cc2)N3)cc1 (centres undefined),"inconclusive: 21.3 µM [inhibitor, single point]",
COc1c(Cl)cc(C(=O)Nc2ccccc2C(=O)O)cc1Cl,active: 16.9 µM,
Cc1ccccc1CN1CCCC(C(=O)Nc2ccccc2Oc2cccnc2)C1 (centres undefined),,inactive: 3.6%
COc1ccc2c(=O)c(N3C(=O)c4ccccc4C3=O)coc2c1,"inconclusive: 23.9 µM [inhibitor, partial curve, poor fit]",
Cc1csc(CNc2ncnc3ccc(-c4ccc5c(c4)OCCO5)cc23)c1,"inconclusive: 7.57 µM [inhibitor, partial curve, poor fit]",
CN(C)c1ccc(CN(Cc2ccco2)C(=O)c2ccc(F)cc2)cc1,,inactive: 5.86%
CC(C)c1ccc(/C=C/C(=O)NCCC2=CCCCC2)cc1,"inconclusive: 37.9 µM [inhibitor, partial curve, poor fit]",
COc1ccccc1OCCn1cc(/C=N/NC(=O)c2ccncc2)c2ccccc21,"inconclusive: 33.8 µM [inhibitor, single point]",
Cc1ccc(-c2nn(-c3ccccc3)cc2C(=O)N2CCN(C3CCS(=O)(=O)C3)CC2)cc1 (centres undefined),"inconclusive: 26.9 µM [inhibitor, partial curve, poor fit]",
C=CCn1c(SCC(=O)NC2CCS(=O)(=O)C2)nnc1-c1cc2c(s1)CCC(CC)C2 (centres undefined),active: 10.7 µM,
CC(=O)Nc1ccc(Nc2nc(-c3cc4ccccc4oc3=O)cs2)cc1,active: 5.36 µM,
S=c1[nH]c(-c2ccccc2)cs1,"inconclusive: 16.9 µM [inhibitor, partial curve]",
Cc1cc(C(=O)N/N=C/c2c[nH]c3ccccc23)c(C)o1,active: 19 µM,
CCOC(=O)N1CCC(NC(=O)c2cc(-c3ccc(OC)cc3)nc3ccccc23)CC1,active: 4.78 µM,
COC(=O)c1ccc(CNC(=O)CSC2=NCCS2)cc1,,inactive: -6.48%
CCC(C)(C)C1CCC2(CC1)NC(=O)N(CC(=O)NCCc1c[nH]c3ccccc13)C2=O (centres undefined),,inactive: 7.82%
CCOc1cccc(C(=O)Nc2nnc(-c3cccs3)s2)c1,active: 1.51 µM,
C/C(=N/Nc1cc(-c2ccccc2)nc(-c2ccccc2)n1)c1ccc(O)cc1,active: 10.7 µM,
COc1cccc(N2CCN(C(=O)c3c4c(nc5ccccc35)C(=O)N(C3CCCCC3)C4)CC2)c1,,inactive: -11.8%
CCOc1cc(/C=N/Nc2nc(C)cc(=O)[nH]2)ccc1O,"inconclusive: 21.3 µM [inhibitor, partial curve]",
CCCNC(=O)COCc1cc(-c2ccc3c(c2)OCO3)on1,"inconclusive: 10.7 µM [inhibitor, partial curve]",
CCc1c(C)c2ccc(OCC(=O)NCC3CCC(C(=O)O)CC3)cc2oc1=O (centres undefined),"inconclusive: 21.3 µM [inhibitor, single point]",

# — PubChem BioAssay AID588342 (National Center for Advancing Translational Sciences (NCATS), 2011)
